According to PubChem BioAssay AID493208 (National Center for Advancing Translational Sciences (NCATS), 2011):
The campaign covered roughly 44,000 compounds. About 340 (0.77%) were called active. Not shown: some 5% with an inconclusive outcome. Calls come from the whole dose curve; as a rule, active = well fitted inhibition curve with a large enough effect; inconclusive = small, poorly fitted or top-dose-only effect; inactive = flat fitted curve, though single readings scatter. This is one part of the list.

Experiment: Acumen qHTS Assay for Inhibitors of the mTORC1 Signaling Pathway in MEF (Tsc2-/-, p53-/-) Cells: Sytravon;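 note: plate controls were DMSO for no effect and rapamycin for full effect; nearly all actives have a fitted effect of over 50% in size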
Details: phospho-rpS6 immunofluorescence/PI, 24 h; series mostly up to 38.3 µM; activity change, negative = inhibition: at the top concentration
Procedure, shortened: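 Readout is phospho-S6 Alexa 488 signal normalized to PI per well, reported as % active cells with thresholds set from rapamycin (7.5 nM) and DMSO controls. Cells: Tsc2-/-, p53-/- MEFs, 24 hrs compound at 37 C; PI cell number serves as viability.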

Activity change, negative = inhibition, inactive:
COc1ccc(C2Nc3ccccc3-c3cc(C)nn32)cc1OC (stereo not drawn) -4.49%
COC(=O)c1cc2sc(C)cc2n1Cc1cccc(OC)c1 -9.63%
CCOC(=O)c1c(-c2ccc(OC)cc2)oc2ccc(OCc3ccccc3C)cc12 -1.33%
CCOC(=O)c1c(C)[nH]c(C)c1S(=O)(=O)N1CCCC(C(=O)NCc2cccc(C)c2)C1 (stereo not drawn) 8.48%
Cc1cccn2c(=O)c(C(=O)NCc3ccc(F)cc3)c(O)nc12 -3.72%
O=c1cc(-c2ccccc2)nc(SCc2nc(-c3ccccc3Cl)no2)[nH]1 -0.624%
CCOc1cc(C(=O)Nc2cc3c(cc2N2CCOCC2)n(C)c(=O)n3C)cc(OCC)c1OCC -10.3%
Cc1ccccc1CNC(=O)CCCn1c(=O)c2cccn2c2cccnc21 -2.5%
CNc1ncnc2c1cnn2-c1ccc(C)c(C)c1 21.9%
Cc1ccc(N2CC(NC(=O)c3cccs3)CC2=O)cc1C (stereo not drawn) -5.82%
Cc1cccc(NC(=O)c2ccc(-n3cnc4cccnc43)cc2)c1C -1.08%
Oc1ccccc1-c1nc(/C=C/c2ccccc2Cl)nn1-c1ccccc1 -2.35%
CCc1ccc(C(=O)c2cn(CC(=O)Nc3ccc4c(c3)OCO4)c3ccc(OC)cc3c2=O)cc1 -0.264%
Cn1c(C(=O)Nc2cccc(C(F)(F)F)c2)cc2c(=O)n3ccccc3nc21 -11.7%
CCOc1ccc(NC(=O)C2CCC(CNS(=O)(=O)c3ccc(Br)s3)CC2)cc1 (stereo not drawn) -18.2%
COc1ccc(OC)c(CNC(=O)C(C)n2c(C)c3cnn(-c4ccccc4)c(=O)c3c2C)c1 (stereo not drawn) -0.069%
CC1=C(c2ccc(C)c(C)c2)S(=O)(=O)N=C1N1CCC(C(=O)N2CCC(C)CC2)CC1 -7.77%
CCOc1cc(/C=C(\C#N)C(=O)NCC2CCCO2)ccc1O (stereo not drawn) 9.04%
Cc1ccccc1OCc1ccc(-c2nc(C#N)c(NCc3cccnc3)o2)o1 -13.3%
CCOc1ccc(C(=O)c2oc3ccccc3c2NC(=O)Cc2coc3ccc(CC)cc23)cc1 -0.515%
O=C(Cc1ccc(F)cc1)Nc1nnc2n1CCS2 -0.534%
COc1cccc(C(=O)Nc2c(C(=O)N3CCN(c4ccc(F)cc4)CC3)oc3ccccc23)c1 -2.7%
CCc1ccc(CNC(=O)c2c(C)oc3ncnc(N4CCOCC4)c23)cc1 1.4%
COc1cc2ccccc2cc1C(=O)Nc1ccc2oc(-c3ccc(F)cc3Cl)nc2c1 4.42%
CCc1cccc(-n2c(=O)c3cccnc3n2CC(=O)Nc2ccc(F)c(C)c2)c1 5.17%
CCc1ccc2occ(CC(=O)Nc3ccccc3C(F)(F)F)c2c1 2.32%
CC(C)c1ccc(Nc2cc(C(=O)NC3CCCCC3)c3ccccc3n2)cc1 -4.92%
COc1ccccc1NC(=O)CSc1nc(-c2ccc(C(C)(C)C)cc2)c(C#N)c(=O)[nH]1 -1.35%
